Data taken from PubChem BioAssay AID434955 (Southern Research Specialized Biocontainment Screening …, 2010).
This is one part of the list. The main result of the screen is listed elsewhere. These columns were measured beside it and carry no call. Compounds called inactive in the main read-out are mostly missing here.

Assay: beta-lactam sensitization of Mtb H37Rv, H37Rv (AID 434955);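 also: growth measured after seven days incubation then overnight dye step; 0% = bacteria only wells and 100% = bacteria with antibiotic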
Conditions: M. tuberculosis H37Rv growth with meropenem, percent inhibition; measured here: primary screen without meropenem; at 25 µM

| SMILES | inhibition [%] |
| --- | --- |
| Cc1cc(C)n(CCC(=O)N/N=C/c2ccc(O)cc2)n1 | -2.31 |
| Cc1ccc2c(c1)N(CC(=O)NCCCN1CCCCC1C)C(=O)c1cccnc1O2 (configuration not stated) | -2.75 |
| COc1cccc(CC(=O)Nc2cc(C(F)(F)F)ccc2N2CCCC2)c1 | -7.85 |
| Cc1onc(-c2ccccc2Cl)c1C(=O)OCC(=O)Nc1ccc2c(c1)OCO2 | -3.47 |
| Cc1ccc2c(c1)NC(=O)C(CC(=O)Nc1ccc(CN3CCC(C)CC3)cc1)O2 (configuration not stated) | -8.12 |
| Cc1nc(CC(=O)N2CCN(c3cccc(C)c3C)CC2)cs1 | -17.3 |
| CC(=O)Nc1ccc(C2NC(=O)c3ccccc3O2)cc1 (configuration not stated) | 2.48 |
| CCCC(=O)N(CCN1CCOCC1)c1nc2c(OC)ccc(OC)c2s1 | -4.18 |
| Cc1oncc1C(=O)Nc1cccc(C#N)c1 | -6.95 |
| O=C(NCCC(=O)N1CCCCC1)c1ccccc1Cl | -3.32 |
| COc1ccc(/C=C2\CCCC(C(=O)C(F)(F)F)=C2O)cc1OC | 5.85 |
| O=C(/C=C/c1ccccc1[N+](=O)[O-])c1ccc(F)cc1 | 28.5 |
| Cc1cc(C2C(=O)c3ccccc3C2=O)c(C)c(C)c1C | 30.3 |
| COC(=O)Nc1nnc(Cc2ccccc2)s1 | -2.16 |
| CCOc1ccc(CCNC(=O)CN2C(=O)c3cccnc3Oc3ccc(C)cc32)cc1OCC | -8.05 |
| CN(Cc1cccnc1)C(=O)c1cc(COc2ccc3c(c2)CCCC3)on1 | 89.9 |
| COc1cc(/C=N/NC(N)=S)ccc1OC(=O)c1ccc(C)cc1 | 43.5 |
| COC(=O)c1sc2nc(SCc3ccccc3C)n(N)c(=O)c2c1C | -6.48 |
| O=C(Cc1ccc(Cl)cc1Cl)Nc1ccc(OC(F)F)c(Cl)c1 | 38.1 |
| Cc1cccnc1NC(=O)c1cc2ccccc2oc1=O | 3.96 |
| CCOC(=O)c1nn(-c2cccc(Cl)c2)c(C)c1C(C)=O | 2.47 |
| CN(C)/N=C/c1ccc(/C=N/NC(N)=S)o1 | 10.6 |
| O=C(/C(=C(\[O-])c1ccccc1)[n+]1ccc2ccccc2c1)c1ccc(Cl)cc1 | 2.35 |

| SMILES | inhibition [%] |
| --- | --- |
| CCCC(C)C1(CC)C(=O)NC(=Nc2ccccc2OC)NC1=O (configuration not stated) | 0.27 |
| COc1ccc(C/C(=N\O)c2ccc(OC)cc2)cc1 | 9.43 |
| CC(C)(C)N(Cc1ccccc1)C(=O)COC(=O)c1ccc([N+](=O)[O-])o1 | 62.5 |
| Cc1ccc(/C=N/N2C(=O)c3ccccc3NC2c2ccc(C)cc2)cc1 (configuration not stated) | -1.27 |
| OCCCc1cn(-c2ccccc2)c2ccccc12 | -0.86 |
| Cc1cc(C)c2sc(N(CCCN(C)C)C(=O)COc3ccc(Cl)cc3)nc2c1 | 1.33 |
| CC1CCCC(C)N1CCCNC(=O)CN1C(=O)c2cccnc2Oc2ccc(Cl)cc21 (configuration not stated) | 1.63 |
| Cc1cccc(Cc2c(C)nc3nc(SCC(=O)NCc4ccco4)nn3c2C)c1 | -4.32 |
| O=C(c1ccc(Cl)s1)N1CCN(C23CC4CC(CC(C4)C2)C3)CC1 | -9.84 |
| O=C(c1ccc(OC2CCN(CCO)CC2)cc1)N1CCCC1 | -5.6 |
| Cc1ccc(C(=O)C[n+]2cc(-c3ccc(C)cc3)n3c2CCCCC3)cc1 | 99.7 |
| COc1cccc(/C=N/NC(N)=S)c1OS(=O)(=O)c1ccccc1 | 34 |
| COc1ccc(NC(=O)CSc2ncnc3[nH]ncc23)cc1 | -0.61 |
| COc1cccc(S(=O)(=O)NCc2ccc(C(=O)N3CCN(c4ccccc4OC)CC3)cc2)c1 | 3.43 |
| Cc1ccc(CCNC(=O)C2CCC(=O)N(Cc3cccc(F)c3)C2)cc1 (configuration not stated) | 3.38 |
| O=C(O)Cn1nc(-c2ccc(F)cc2)oc1=O | -3.2 |
| O=C(NC1CCN(C(=O)NC2CCCCC2)CC1)c1ccco1 | 3.7 |
| Cc1ccc(N2CC(C(=O)Nc3c4c(nn3C(C)(C)C)CS(=O)(=O)C4)CC2=O)cc1C (configuration not stated) | 3.78 |
| CC1c2[nH]c3ccccc3c2C[C@H]2C(=O)N(CCCN(C)C)CC(=O)N12 (some centres not stated) | -0.53 |
| COc1ccccc1C(=O)Nc1nnc(SCC(=O)NCC2CCCO2)s1 (configuration not stated) | -4.32 |
| Cc1ccccc1CN1CCN(CC(=O)NCc2ccccc2)C1=O | -3.71 |
| Cc1ccc(-c2nnc(NC(=O)Cc3ccc(F)cc3)o2)c(C)c1 | 83.8 |
| O=C(Nc1ccccc1)c1c2c(nc3ccccc13)CCCC2 | 4.68 |

| SMILES | inhibition [%] |
| --- | --- |
| C=C1C(=O)O[C@@H]2[C@H]1[C@@H](OC(=O)/C(C)=C/C)C/C(C)=C\C(=O)/C=C(\C)[C@@H]2O | 44.7 |
| Cc1ccc(S(=O)(=O)N/N=C/c2ccccc2O)cc1 | 3.2 |
| Cc1cc(Cl)c2oc(C(=O)NCCN3CCCCC3CO)c(C)c2c1 (configuration not stated) | -5.49 |
| Cc1ccc(NS(=O)(=O)c2ccc(NC(=O)C3CC3)cc2)c(C)c1 | 0.85 |
| CCn1nc(C)cc1C(=O)N1CCCC(N2CCN(c3cccc(Cl)c3)CC2)C1 (configuration not stated) | 7.13 |
| CCc1cc(=O)[nH]c(SCc2cccc3ccccc23)n1 | 4.54 |
| COc1cccc(NC(=O)CCC2CCN(C(=O)c3cncs3)CC2)c1 | 2.06 |
| CCCc1cc(=O)oc2c(C)c(O[C@@H]3O[C@H](CO)[C@@H](O)[C@H](O)[C@H]3O)ccc12 | -8.55 |
| COc1cc(/C=C(\C#N)C(=O)Nc2ccc3ccccc3c2)c([N+](=O)[O-])cc1OC | 6.36 |
| Cc1cccc(C)c1NC(=O)CNC(=O)c1cn(-c2ccccc2)nc1-c1ccccc1 | 5.16 |
| N#C/C(=C(/O)COC(=O)CCc1ccc(S(=O)(=O)N2CCOCC2)cc1)c1nc2ccccc2[nH]1 | 32 |
| CCCCc1c(O)nc2n(c1=O)CCS2 | -1.8 |
| Cc1c(Cl)ccc2c1NC(=O)[C@]21N[C@@H](Cc2ccccc2)[C@H]2C(=O)N(c3ccc(F)cc3)C(=O)[C@H]21 | 99.8 |
| Cc1nnc(SCC2=C(C(=O)O)N3C(=O)C(NC(=O)COc4ccc(F)cc4)C3SC2)s1 (configuration not stated) | -12.7 |
| COc1cccc(CN2CC(C(=O)N3CCCCCC3)CCC2=O)c1 (configuration not stated) | 3.88 |
| CCOC(=O)N1CCN(C(=O)CSc2nnc(COc3ccccc3)o2)CC1 | 25.4 |
| Cc1ccc(S(=O)(=O)N2CCC(C(=O)OC(C)C(=O)NCc3ccccc3)CC2)cc1C (configuration not stated) | 0.49 |
| O=C1NC(c2ccc(Br)cc2)Nc2sc3c(c21)CCC3 (configuration not stated) | -27.4 |
| CCn1cc(C(=O)O)c(=O)c2cc(F)c(N3CCN(C(=S)NC(=O)c4ccccc4C)CC3)cc21 | 38.1 |
| O=C(CSc1nnc(SCc2ccccc2)s1)N/N=C/c1ccc(Cl)cc1Cl | 24.9 |
| COc1ccc(N2CCN(C(=O)C3CCCN(S(=O)(=O)c4cccc5cccnc45)C3)CC2)cc1 (configuration not stated) | -2.11 |
